According to EPA's CvTdb concentration-time database:
The source gives many values for each of these; only a part stands here.

Assays:
Assay in all cases: concentration in plasma after dosing
Rat [1] = details: 10 min; dosed: Dibromoacetic acid; 50 mg/kg; oral; Male; Harlan Sprague Dawley
Rat [2] = details: 0.75 h; dosed: Potassium Perfluorobutane Sulfonate; 20 mg/kg; oral; Male; Harlan Sprague Dawley
Rat [3] = details: 1 h; dosed: Potassium Perfluorobutane Sulfonate; 100 mg/kg; oral; Female; Harlan Sprague Dawley

| SMILES | concentration in plasma (Rat [1]) | concentration in plasma (Rat [2]) | concentration in plasma (Rat [3]) |
| --- | --- | --- | --- |
| O=C(O)C(Br)Br [Dibromoacetic acid] | 12.1 µg/mL |  |  |
| O=S(=O)([O-])C(F)(F)C(F)(F)C(F)(F)C(F)(F)F.[K+] [Potassium Perfluorobutane Sulfonate] |  | 67 µg/mL | 134 µg/mL |
